Test results as given in PubChem BioAssay AID2060497 (Molecular Pharmacology Branch, DTP, NCI, 2025).
Certain results were filed several times, with different values. They are shown here; other results are not. An entry can have further records. Values that stand side by side are repeats across runs, samples, wells, individuals or studies. Signs of the kind (2×) stand for listed records that agree. A date in brackets names the month of the test.

System: 317291-083-R-J1-PDC complex spheroids, viability
Test: Anticancer human tumor 317291-083-R-J1-PDC patient-derived soft tissue sarcoma cell line growth inhibition [GQUAD]
Conditions: for viability, T/C: stronger effect = lower value; for IC50: compound alone
Excerpt: DNA G-quadruplex Stabilizer Agents in Combinations in Complex Spheroids
A high-throughput screen of multi-cell type tumor spheroids was designed to identify active combinations of DNA G-quadruplex stabilizer agents and targeted small molecules. Complex spheroids include a stromal component modeled by human endothelial cells (HUVEC) and fibroblasts modeled by human mesenchymal stem cells (MSCs). The concentration ranges selected for each drug and investigational agent were based upon clinically achievable concentrations if the clinical Cmax of the agent was known.
Compounds. The drugs and investigational agents: pidnarulex (CX-5461; NSC782164), APTO-253 (NSC789042), BRACO-19 (NSC847499), peposertib (NSC802822), ceralasertib (NSC780249), elimusertib (NSC800525), camonsertib (NSC841442), AZD-1390 (NSC803789), olaparib (NSC753686), talazoparib (NSC767125), ART-558 (NSC835418), sotorasib (NSC818433), MRTX-1133 (NSC836407), SN-38 (NSC673596), topotecan (NSC609699), etoposide (NSC141540), doxorubicin (NSC123127), gemcitabine (NSC613327), 5-fluorouracil (NSC19893), paclitaxel (NSC125973), vemurafenib (NSC761431), panobinostat (NSC761190), R-306465 (JNJ-16241199; NSC773264), adavosertib (NSC754352), TP-3654 (NSC805149), carboplatin (NSC241240), KSQ-4279 (NSC840948), and staurosporine (NSC755774) were obtained from the National Cancer Institute (NCI) Developmental Therapeutics Program Chemical Repository (34). The FDA-approved anticancer drug set is available from the NCI Developmental Therapeutics Program. […] The stock solutions were prepared in dimethyl sulfoxide (DMSO, Sigma-Aldrich, St. Louis, MO, cat. D2650) at 800-fold the tested concentration and stored at -70 degrees C prior to their use. All drugs and investigational agents were tested over a range starting from a high concentration at or near the clinical Cmax and decreasing in half-log increments. If the clinical Cmax for an agent had not been determined, the highest concentration tested was 10 microM.
2.3 Cell Culture. All cells were maintained in an incubator at 37 degrees C and 5% CO2 with 95% humidity. The PDC lines were cultured according to standard operating procedures established by the NCI PDMR. All PDCs were thawed and cultured in Matrigel-coated flasks prepared with a working solution of 1X Ham's F-12 nutrient mix, without supplementation (Invitrogen, cat. 11765054), 100 U/mL penicillin-streptomycin (Invitrogen, cat. 15140122), and 2.5% Matrigel (Corning Inc., cat. 354248) for the first three passages. The 857933-349-R-J2-PDC line was cultured in 6C/Colon 1B media, which includes advanced DMEM/F-12 (Thermo Fisher Scientific, cat. 12634028), 10 mM HEPES (Thermo Fisher Scientific, cat. 15630080), 1X GlutaMAX supplement (Thermo Fisher Scientific, cat. 35050061), 0.1 mg/mL primocin (InvivoGen, cat. ant-pm-2), 10% defined fetal bovine serum, heat inactivated (HyClone Laboratories Inc., cat. SH30070.03HI), 50% L-WRN conditioned media (ATCC, cat. CRL-3276), 1.25 mM N-Acetyl-L-cysteine (Sigma-Aldrich, cat. A9165), 10 mM nicotinamide (Sigma-Aldrich, cat. N0636), 1X B-27 supplement (Thermo Fisher Scientific, cat. 17504044), 1X N-2 supplement (Thermo Fisher Scientific, cat. 17502048), 10 microM Y-27632 dihydrochloride (Tocris Bioscience, cat. 1254), and 50 ng/mL human EGF recombinant protein (Thermo Fisher Scientific, cat. PHG0311). The 485176-168-R4-J1-PDC line was cultured in Panc media, which includes all 6C/Colon 1B media components plus 100 ng/mL human FGF-10 (Thermo Fisher Scientific, cat. 100-26), 500 nM SB-431542 (Selleckchem, cat. S1067), and gastrin (Tocris, cat. 3006).
[…]
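Also: spheroids exposed to compounds for one week before readout.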
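For viability, T/C in this document: percent viability relative to DMSO vehicle wells taken as 100%.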

Row | Compound | viability, T/C (compound alone 0.0316 µM) | viability, T/C (compound alone 0.316 µM) | viability, T/C (compound alone 1 µM) | viability, T/C (compound alone 3.16 µM) | IC50 (run of 02/26/2024) | viability, T/C (compound alone 0.1 µM) | viability, T/C (compound alone 10 µM) | IC50 (run of 02/20/2024)
1 | CN(C)c1ccc(Nc2c3ccc(NC(=O)CCN4CCCC4)cc3nc3cc(NC(=O)CCN4CCCC4)ccc23)cc1 | 76.3, 96.9, 98.2, 109 (2×), 108, 92.4 (2×), 101, 100, 113% (2×) | 77, 76.3, 85.3, 90.9, 82.1, 91, 58.3, 62.9, 83.7, 49.4, 86.3, 97.4% | 48.8, 24.8, 68.1, 52.8, 54.6, 46.5, 38.9, 36, 65.3, 53.5, 58.3, 59% | 31.1, 4.95, 53.6, 32.7, 40.5, 39.4, 6.2, 3.51, 34, 2.62, 33.3, 41.7% | 599 nM and 1.18 µM, 569 nM, 3.09 µM, 1.35 µM, 1.59 µM, 1.13 µM, 542 nM, 559 nM, 1.74 µM, 1.51 µM, 1.85 µM [2024-02] | – | – | –
2 | Cc1[nH]c2ccc(F)cc2c1-c1nc2c3cccnc3c3ncccc3c2[nH]1 | 105, 92.5 (2×), 97.8, 89.9, 112 (2×), 111, 95.5, 131, 103, 107% | 95.8, 106 (2×), 99.8, 105 (2×), 113, 96.4, 79.4, 76.5, 73.8, 65.7% | 97.1, 105 (2×), 103, 97.3, 111 (2×), 96.5, 67.5, 56.6, 58.4, 65.3% | 96, 90.4, 93.8, 89.5, 90.3, 99.9, 80.9, 95.7, 42.8, 29.6, 31.6% (2×) | 5.6, 1.26, 2.41, 2.33 µM | 122, 105, 110 (2×), 106 (2×), 103 (2×), 99.7, 96.6, 93.5, 98.2% | 87.4, 90.7, 66.3, 75.1, 90.2, 86.4, 81.8, 99.3, 52.6, 49.1, 61.8, 56.5% | –
3 | Cc1cnc(CNC(=O)c2c(=O)c3ccc(N4CCCN(C)CC4)nc3n3c2sc2ccccc23)cn1 | – | 49.6, 60, 62.4, 72.8, 42, 41, 36.4, 50.5, 46.4, 38.9, 45.3, 50.8% | – | 16.3, 26.9, 45.4, 22.1, 24, 16.6, 13.1, 24.1, 19.6, 14.5, 23.5, 20.2% | – | – | 20.6 (2×), 15.7, 29.7, 30.5, 11.2, 0.92, 31.6, 48.6, 12.1, 0.57, 27.5% | 281, 485, 625, 586, 268, 185, 197, 291, 225, 177, 271, 306 nM
